Some of the results follow.
Assays:
Assay in all cases: glycan array binding signal (z-score within array); higher = stronger binding
Conditions in all cases: glycan notation: IUPAC condensed, linker removed
GlcA(b1-3)GlcNAc = target: GlcA(b1-3)GlcNAc
Procedure, shortened: (§1)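 The Consortium for Functional Glycomics database supplied 3228 glycan arrays, of which those lacking an available protein sequence were dropped. The binding signal, a within-array Z-score, was averaged across arrays of the same protein sequence and across linkers. Negative scores can be read as non-binding.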

GlcA(b1-6)Gal = target: GlcA(b1-6)Gal
Procedure, shortened: as §1

[1] = target: GlcNAc(a1-3)Gal(b1-4)GlcNAc
Procedure, shortened: as §1

[2] = target: GlcNAc(a1-6)Gal(b1-4)GlcNAc
Procedure, shortened: as §1

[3] = target: GlcNAc(b1-2)Gal(b1-3)GalNAc
Procedure, shortened: as §1

[4] = target: GlcNAc(b1-2)Man(a1-3)[GlcNAc(b1-2)Man(a1-6)]Man(b1-4)GlcNAc(b1-4)GlcNAc
Procedure, shortened: as §1

GlcNAc(b1-3)Gal = target: GlcNAc(b1-3)Gal
Procedure, shortened: as §1

[5] = target: GlcNAc(b1-3)Gal(b1-3)GalNAc
Procedure, shortened: as §1

GlcNAc(b1-3)Gal(b1-4)Glc = target: GlcNAc(b1-3)Gal(b1-4)Glc
Procedure, shortened: as §1

[6] = target: GlcNAc(b1-3)Gal(b1-4)GlcNAc
Procedure, shortened: as §1

[7] = target: GlcNAc(b1-3)Gal(b1-4)GlcNAc(b1-3)Gal(b1-4)GlcNAc
Procedure, shortened: as §1

GlcNAc(b1-3)GalNAc = target: GlcNAc(b1-3)GalNAc
Procedure, shortened: as §1

GlcNAc(b1-3)Man = target: GlcNAc(b1-3)Man
Procedure, shortened: as §1

[8] = target: GlcNAc(b1-3)[GlcNAc(b1-4)][GlcNAc(b1-6)]GlcNAc
Procedure, shortened: as §1

[9] = target: GlcNAc(b1-3)[GlcNAc(b1-6)]Gal(b1-4)GlcNAc
Procedure, shortened: as §1

[10] = target: GlcNAc(b1-3)[GlcNAc(b1-6)]GalNAc
Procedure, shortened: as §1

[11] = target: GlcNAc(b1-4)Gal(b1-4)GlcNAc
Procedure, shortened: as §1

GlcNAc(b1-4)GlcNAc = target: GlcNAc(b1-4)GlcNAc
Procedure, shortened: as §1

[12] = target: GlcNAc(b1-4)GlcNAc(b1-4)GlcNAc
Procedure, shortened: as §1

[13] = target: GlcNAc(b1-4)GlcNAc(b1-4)GlcNAc(b1-4)GlcNAc(b1-4)GlcNAc
Procedure, shortened: as §1

[14] = target: GlcNAc(b1-4)GlcNAc(b1-4)GlcNAc(b1-4)GlcNAc(b1-4)GlcNAc(b1-4)GlcNAc
Procedure, shortened: as §1

[15] = target: GlcNAc(b1-4)[GlcNAc(b1-6)]GalNAc
Procedure, shortened: as §1

[16] = target: GlcNAc(b1-6)Gal(b1-4)GlcNAc
Procedure, shortened: as §1

GlcNAc(b1-6)GalNAc = target: GlcNAc(b1-6)GalNAc
Procedure, shortened: as §1

GlcNAc3Prop(b1-4)GlcNAc = target: GlcNAc3Prop(b1-4)GlcNAc
Procedure, shortened: as §1

Kdn(a2-3)Gal(b1-3)GlcNAc = target: Kdn(a2-3)Gal(b1-3)GlcNAc
Procedure, shortened: as §1

Kdn(a2-3)Gal(b1-4)GlcNAc = target: Kdn(a2-3)Gal(b1-4)GlcNAc
Procedure, shortened: as §1

[17] = target: Man(a1-2)Man(a1-2)Man(a1-3)Man
Procedure, shortened: as §1

[18] = target: Man(a1-2)Man(a1-2)Man(a1-6)[Man(a1-3)]Man
Procedure, shortened: as §1

Man(a1-2)Man(a1-3)Man = target: Man(a1-2)Man(a1-3)Man
Procedure, shortened: as §1

[19] = target: Man(a1-2)Man(a1-3)[Man(a1-2)Man(a1-6)]Man
Procedure, shortened: as §1

[20] = target: Man(a1-2)Man(a1-3)[Man(a1-2)Man(a1-6)]Man(a1-6)[Man(a1-2)Man(a1-2)Man(a1-3)]Man
Procedure, shortened: as §1

[21] = target: Man(a1-2)Man(a1-3)[Man(a1-2)Man(a1-6)]Man(a1-6)[Man(a1-2)Man(a1-2)Man(a1-3)]Man(b1-4)GlcNAc(b1-4)GlcNAc
Procedure, shortened: as §1

[22] = target: Man(a1-2)Man(a1-3)[Man(a1-6)]Man(a1-6)[Man(a1-2)Man(a1-3)]Man(b1-4)GlcNAc(b1-4)GlcNAc
Procedure, shortened: as §1

[23] = target: Man(a1-2)Man(a1-6)[Man(a1-3)]Man(a1-6)[Man(a1-2)Man(a1-2)Man(a1-3)]Man
Procedure, shortened: as §1

[24] = target: Man(a1-2)Man(a1-6)[Man(a1-3)]Man(a1-6)[Man(a1-2)Man(a1-2)Man(a1-3)]Man(b1-4)GlcNAc(b1-4)GlcNAc
Procedure, shortened: as §1

Man(a1-3)[Man(a1-6)]Man = target: Man(a1-3)[Man(a1-6)]Man
Procedure, shortened: as §1

B1: Surfactant Protein D (Human); Neck + Carbohydrate Recognition Domain (NCRD) (Homo sapiens) (protein)
chain: MLLFLLSALVLLTQPLGYLEAEMKTYSHRTMPSACTLVMCSSVESGLPGRDRDGREGPRGEKGDPGLPGAAGQAGMPGQAGPVGPKGDNGSVGEPGPKGDTGPSGPPGPPGVPGPAGREGALGKQGNIGPQGKPGPKGEAGPKGEVGAPGMQGSAGARGLAGPKGERGVPGERGVPGNTGAAGSAGAMGPQGSPGARGPPGLKGDKGIPGDKGAKGESGLPDVASLRQQVEALQGQVQHLQAAFSQYKKVELFPNGQSVGEKIFKTAQFVKPFTEAQLLCTQAGGQLASPRSAAENAALQQLVVAKNEAAFLSMTDSKTEGKFTYPTGESLVYSNWAPGEPNDDGGSEDCVEIFTNGKWNDRACGEKRLVVCEF
For B1, the “glycan array binding signal (z-score)” value (GlcA(b1-3)GlcNAc) was -0.074, the “glycan array binding signal (z-score)” value (GlcA(b1-6)Gal) was -0.166 and the “glycan array binding signal (z-score)” value [1] was -0.085. The “glycan array binding signal (z-score)” value [2] was -0.272, the “glycan array binding signal (z-score)” value [3] was -0.266 and the “glycan array binding signal (z-score)” value [4] was -0.125. For the same binder, the “glycan array binding signal (z-score)” value (GlcNAc(b1-3)Gal) was -0.211, the “glycan array binding signal (z-score)” value [5] was -0.22 and the “glycan array binding signal (z-score)” value (GlcNAc(b1-3)Gal(b1-4)Glc) was -0.21. The “glycan array binding signal (z-score)” value [6] was -0.167, the “glycan array binding signal (z-score)” value [7] was -0.149 and the “glycan array binding signal (z-score)” value (GlcNAc(b1-3)GalNAc) was -0.245. For the same binder, the “glycan array binding signal (z-score)” value (GlcNAc(b1-3)Man) was -0.233, the “glycan array binding signal (z-score)” value [8] was -0.252 and the “glycan array binding signal (z-score)” value [9] was -0.244. The “glycan array binding signal (z-score)” value [10] was -0.258, the “glycan array binding signal (z-score)” value [11] was -0.274 and the “glycan array binding signal (z-score)” value (GlcNAc(b1-4)GlcNAc) was -0.234. For the same binder, the “glycan array binding signal (z-score)” value [12] was -0.24, the “glycan array binding signal (z-score)” value [13] was 0.25 and the “glycan array binding signal (z-score)” value [14] was 0.127. The “glycan array binding signal (z-score)” value [15] was -0.275, the “glycan array binding signal (z-score)” value [16] was -0.163 and the “glycan array binding signal (z-score)” value (GlcNAc(b1-6)GalNAc) was -0.284. The “glycan array binding signal (z-score)” value (GlcNAc3Prop(b1-4)GlcNAc) was -0.269, the “glycan array binding signal (z-score)” value (Kdn(a2-3)Gal(b1-3)GlcNAc) was -0.267 and the “glycan array binding signal (z-score)” value (Kdn(a2-3)Gal(b1-4)GlcNAc) was -0.264. The “glycan array binding signal (z-score)” value [17] was 6.02, the “glycan array binding signal (z-score)” value [18] was 5.46 and the “glycan array binding signal (z-score)” value (Man(a1-2)Man(a1-3)Man) was 0.79. The “glycan array binding signal (z-score)” value [19] was 4.89, the “glycan array binding signal (z-score)” value [20] was 4.11 and the “glycan array binding signal (z-score)” value [21] was 1.01. The “glycan array binding signal (z-score)” value [22] was 6.78, the “glycan array binding signal (z-score)” value [23] was 4.85 and the “glycan array binding signal (z-score)” value [24] was 5.33. For the same binder, the “glycan array binding signal (z-score)” value (Man(a1-3)[Man(a1-6)]Man) was 0.203.

From the supplement of paper PMC8728848
